From article PMC6609622, “Poly(ADP-ribose) polymerase-1 antagonizes DNA resection at double-strand breaks” come the findings set out here.

Entries with a single value are a further part of the results.

This data set deals with EXO1 (human). The data set is described as follows: single-molecule DNA curtains. As to conditions: EMSA: 20 mM Na-HEPES pH 7.5, 0.1 mM DTT, 0.05% Triton X-100, 100 ug/mL BSA, 5 mM MgCl2, 2 mM ATP, 100 nM DNA, 37 C 10 min, then 0.2% glutaraldehyde 15 min.

“lambda DNA curtain substrate with 78-nt 3' overhang”: the binding signal (% EXO1 loading per PARP-bound DNA end) amounted to 2.4 (DNA end pre-bound by PARP-1) and 91.8 (DNA end pre-bound by PARP-2).
